Source: PubChem BioAssay AID504832 (National Center for Advancing Translational Sciences (NCATS), 2011)
The campaign covered roughly 310,000 compounds. About 18,000 (5.8%) were called active. Inconclusive results, whose numbers are uncertain, are shown with a selection of clear calls. The call rests on the fitted dose curve; in most records, active means well fitted inhibition curve with a large enough effect; inconclusive means small, poorly fitted or top-dose-only effect, or another doubt; inactive means no such curve, though single readings can be large or run the other way. Potencies of inconclusive entries are left out as doubtful fits.

Assay: Primary qHTS for delayed death inhibitors of the malarial parasite plastid, 48 hour incubation
Settings: P. falciparum luciferase growth in erythrocytes; series mostly up to 28.7 µM; activity change, negative = inhibition: at the top concentration
How it was run: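 A one-generation exposure of luciferase-tagged malaria parasites in RPMI 1640/Albumax erythrocyte culture, 37 C and 5% CO2. Inhibition is inferred from decreased luminescence after adding detection reagent.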
On the % scale 0 is the no-effect control and ±100 the full control effect; potency means the concentration at half of the fitted maximal effect; tags describe the fitted curve by direction and shape.

Row | SMILES | activity change, negative = inhibition | Potency
1 | COc1ccccc1/C=N/NC(=O)c1ccc(N(C)S(=O)(=O)c2ccccc2)cc1 | inactive: 8.89% | 
2 | Cc1sc2ncn(CC(=O)Nc3c(F)cccc3F)c(=O)c2c1S(=O)(=O)N1CCC(C)CC1 | inactive: 5.65% | 
3 | COc1ccc(N2C(=O)CC(N3CCN(S(=O)(=O)c4c(C)cc(C)cc4C)CC3)C2=O)cc1 (stereo not given) |  | inconclusive [inhibitor, single point]
4 | CCC(=NCCc1ccc(OC)c(OC)c1)C1=C(O)CC(C)(C)CC1=O |  | inconclusive [inhibitor, partial curve, poor fit]
5 | CN1C(=O)[C@H]2[C@@H](/C=C/c3ccccc3)N3C(=O)CN(Cc4ccccn4)C(=O)[C@@]3(C)[C@H]2C1=O | inactive: 2.46% | 
6 | COc1ccc(OC)c(-c2nnc(NC(=O)C(C)Sc3nncn3C)s2)c1 (stereo not given) |  | inconclusive [inhibitor, single point]
7 | Cc1cccc(N2CC(C)Cn3c2nc2c3c(=O)n(CC(=O)OCc3ccccc3)c(=O)n2C)c1 (stereo not given) |  | inconclusive [inhibitor, partial curve]
8 | Cc1cc(C(=O)N/N=C\C(Br)=C\c2ccccc2)c(C)o1 |  | inconclusive [inhibitor, partial curve, poor fit]
9 | COc1ccc(CCNC(=O)c2cc3c(=O)n4ccccc4nc3n(C3CCCCC3)c2=N)cc1 |  | inconclusive [inhibitor, partial curve]
10 | S=C(NC1CCCCC1)N1CCn2cccc2C1c1cccnc1 (stereo not given) |  | inconclusive [inhibitor, single point]
11 | O=C(Nc1cc(N2CCOCC2)ncn1)c1ccc(F)cc1 | inactive: 101% | 
12 | C=CCSc1nncn1/N=C/c1ccc(OC)cc1 | inactive: 148% | 
13 | CCOC(=O)C1(Cc2ccccc2)CCCN(Cc2ccc(OCC)c(CO)c2)C1 (stereo not given) |  | inconclusive [inhibitor, single point]
14 | Cc1cc(C(=O)N2CCc3c([nH]c4ccccc34)C2c2c(F)cccc2Cl)no1 (stereo not given) |  | active: 5.86 µM
15 | CC1CN(c2nc3c(c(=O)n(Cc4ccc(Cl)c(Cl)c4)c(=O)n3C)n2C)CC(C)O1 (stereo not given) |  | active: 6.57 µM
16 | CC(CCc1ccccc1)NC(=O)CNC(=O)c1cccs1 (stereo not given) | inactive: 13.5% | 
17 | CC1CCCN(CCCOc2ccc(Br)cc2Cl)C1 (stereo not given) |  | inconclusive [inhibitor, single point]
18 | CC(C)CN1CCC(=O)N([C@H](COc2ccccc2)c2ccccc2)CC1 |  | inconclusive [inhibitor, partial curve, poor fit]
19 | CN(C)CCCC(C)(O)C(Cc1ccccc1)c1ccccc1 (stereo not given) |  | inconclusive [inhibitor, partial curve, poor fit]
20 | O=C(Nc1nc2ccccc2n1Cc1ccc(Cl)cc1)c1ccco1 |  | active: 11.7 µM
21 | CCc1ccc(-c2nc(CS(=O)CC(=O)NCCN3CCCCCC3)c(C)o2)cc1 (stereo not given) | inactive: 12.7% | 
22 | Cc1cc(Nc2cccc(F)c2)n2nc(C)nc2n1 |  | inconclusive [inhibitor, partial curve, poor fit]
23 | N#Cc1ccc(CSc2ccccn2)c(Cl)c1 |  | inconclusive [inhibitor, full curve, poor fit]

Row | SMILES | activity change, negative = inhibition | Potency
24 | Cc1ccc(C)c(NC(=O)COc2coc(CN3CCc4ccccc43)cc2=O)c1 |  | inconclusive [inhibitor, single point]
25 | COc1ccccc1-c1cc(C(=O)NC2CCN(C)CC2)c2ccc(Cl)c(C)c2n1 |  | active: 9.28 µM
26 | O=C(NCCc1ccccn1)c1cc(-c2cccc3ccccc23)nc2ccccc12 |  | inconclusive [inhibitor, single point]
27 | Cc1ccc(-n2c(Cc3cccn3C)nnc2SCC(=O)NCc2ccco2)cc1 |  | active: 8.28 µM
28 | Cn1c(N=Nc2ccccc2)nc2ccccc21 |  | active: 0.738 µM
29 | O=C(NCc1ccco1)c1ccc(COCC(F)(F)C(F)F)cc1 |  | inconclusive [inhibitor, partial curve, poor fit]
30 | CCOC(=O)Cn1nnnc1CN(Cc1ccccc1)Cc1cc2cc(CC)ccc2[nH]c1=O | inactive: -13.7% | 
31 | O=C(c1ccc2c3c(cccc13)CC2)C1CCCN(C(=O)c2ccc[n+]([O-])c2)C1 (stereo not given) | inactive: -18.4% | 
32 | CC1CCc2c(sc(NC(=O)c3nc4ncccn4n3)c2C#N)C1 (stereo not given) | inactive: 101% | 
33 | CCC(C)(C)NC(=O)CN(C(=O)CCC(=O)Nc1cc(C)ccn1)c1ccc2c(c1)OCO2 |  | inconclusive [inhibitor, single point]
34 | Cc1cc(C)n2nc(SCC(=O)NC3CCCCC3C)nc2n1 (stereo not given) |  | inconclusive [inhibitor, single point]
35 | CCCCC(c1nnnn1CC1CCCO1)N1CCN(c2nc3ccccc3s2)CC1 (stereo not given) |  | active: 13.1 µM
36 | Cc1cccc(N2CCN(C(=O)C3CCCN(S(=O)(=O)c4cnc[nH]4)C3)CC2C)c1 (stereo not given) |  | inconclusive [inhibitor, partial curve, poor fit]
37 | COc1cc(NC(=O)CN2C(=O)NC(CC(C)C)C2=O)cc(OC)c1OC (stereo not given) |  | inconclusive [inhibitor, partial curve, poor fit]
38 | N=c1c2c(ncn1Cc1ccco1)Oc1ccc3ccccc3c1C2c1ccccc1 (stereo not given) |  | active: 10.4 µM
39 | O=C1CCCN2N=C(SCC(=O)N3CCCCC3)SC2=N1 |  | inconclusive [inhibitor, partial curve, poor fit]
40 | COc1cc(OC)cc(-c2ncc3ccccn23)c1 | inactive: -0.168% | 
41 | Cc1cc(=O)cc(C)n1-c1ccc(Cl)c(Cl)c1 | inactive: -14.4% | 
42 | Cc1ccc(Nc2nc(N)nc(CN3CCN(Cc4ccc5c(c4)OCO5)CC3)n2)c(C)c1 |  | active: 11.7 µM
43 | COc1ccc2[nH]c(=O)c(CNc3cccc(C)c3)cc2c1 |  | inconclusive [inhibitor, single point]
44 | COc1cc(/C=C2\SC(=N)N(c3ccc(F)cc3)C2=O)ccc1O |  | inconclusive [inhibitor, partial curve, poor fit]
45 | O=C(Nc1ccc(F)cc1)C1CC(=O)n2c(nc3ccccc32)N1 (stereo not given) |  | inconclusive [inhibitor, partial curve, poor fit]
